# Where “and” joins values, the source holds several entries; their conditions need not be identical. Equal values may be shown once. The shares of active, inactive and inconclusive entries below differ from those in the screen. For some of these results: Potencies of inconclusive entries are doubtful fits and often do not repeat. Calls of active or inactive are those of the source. Calls come from the whole dose curve; as a rule, active = well fitted curve in the direction sought with a large enough effect; inconclusive = small, poorly fitted or top-dose-only effect, or another doubt; inactive = no such curve, though single readings can be large; an effect the other way counts as inactive or inconclusive.
# Experiments:
# [1] = qHTS of pediatric cancer cell lines to identify multiple opportunities for drug repurposing: Primary screen for Rh30 cells (AID 1347107); details: Rh30 rhabdomyosarcoma viability, CellTiter-Glo luminescence, 48 h; series mostly up to 46 µM; note: potency is the fitted concentration of half-maximal effect; nearly all actives have a fitted effect of over 75% in size
# In short: (§1)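 Cells (500-1,000/well) in growth media were settled 5 h at 37 degrees C, then given compounds for 48 h. Viability was read as CellTiter-Glo luminescence. Primary runs used MIPE at 11 points (0.78 nM-46 µM) and NPC at 8 points (0.59 nM-46 µM); follow-ups used 11 points.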
# [2] = qHTS of pediatric cancer cell lines to identify multiple opportunities for drug repurposing: Primary screen for Rh41 cells (AID 1347108); details: Rh41 rhabdomyosarcoma viability, CellTiter-Glo luminescence, 48 h; series mostly up to 46 µM; note: nearly all actives have a fitted effect of over 70% in size; note: potency is the fitted concentration of half-maximal effect;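 for activity change, negative = cytotoxic: luminescence drop marks cytotoxic hits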
# In short: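 Following a 5-hour attachment period, cells at 500-1,000/well received compounds and were cultured for 48 hours. CellTiter-Glo was added and luminescence read to estimate viable, metabolically active cells.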
# [3] = qHTS of pediatric cancer cell lines to identify multiple opportunities for drug repurposing: Confirmatory screen for NB1643 cells (AID 1347109); details: NB1643 neuroblastoma cell viability; activity change, negative = cytotoxic: at 45.9 µM (top of the series); note: potency is the fitted concentration of half-maximal effect; nearly all actives have a fitted effect of over 45% in size
# In short: as §1
# [4] = qHTS of pediatric cancer cell lines to identify multiple opportunities for drug repurposing: Confirmatory screen for BT-12 cells (AID 1347112); details: BT-12 rhabdoid tumor cells, viability; series mostly up to 45.9 µM; note: potency is the fitted concentration of half-maximal effect; nearly all actives have a fitted effect of over 55% in size
# In short: as §1
# [5] = qHTS of pediatric cancer cell lines to identify multiple opportunities for drug repurposing: Confirmatory screen for NB-EBc1 cells (AID 1347115); details: NB-EBc1 neuroblastoma cells, viability (cytotoxicity); series mostly up to 45.9 µM;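 note: cells exposed to compound for 48 h before the viability read; nearly all actives have a fitted effect of over 45% in size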; note: potency is the fitted concentration of half-maximal effect; for activity change, negative = cytotoxic: % is set by controls: 0 for no effect and ±100 for the full control effect
# In short: as §1
# [6] = qHTS of pediatric cancer cell lines to identify multiple opportunities for drug repurposing: Confirmatory screen for MG 63 (6-TG R) cells (AID 1347119); details: MG-63 (6-TG resistant) osteosarcoma viability; series mostly up to 45.9 µM; note: nearly all actives have a fitted effect of over 55% in size; note: potency is the fitted concentration of half-maximal effect;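 for activity change, negative = cytotoxicity: plate controls were DMSO neutral control for no effect and bortezomib for full effect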
# In short: as §1
# [7] = qHTS of pediatric cancer cell lines to identify multiple opportunities for drug repurposing: Confirmatory screen for control Hh wild type fibroblast cells (AID 1347121); details: viability qHTS; series mostly up to 45.9 µM; note: potency is the fitted concentration of half-maximal effect; nearly all actives have a fitted effect of over 70% in size
# In short: as §1
# [8] = qHTS of pediatric cancer cell lines to identify multiple opportunities for drug repurposing: Confirmatory screen for U-2 OS cells (AID 1347122); details: U-2 OS osteosarcoma cell viability; series mostly up to 45.9 µM; note: nearly all actives have a fitted effect of over 65% in size; note: potency is the fitted concentration of half-maximal effect;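 for activity change, negative = cytotoxicity: plate controls were DMSO for no effect and bortezomib for full effect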
# In short: as §1
# [9] = qHTS of pediatric cancer cell lines to identify multiple opportunities for drug repurposing: Confirmatory screen for RD cells (AID 1347124); details: RD rhabdomyosarcoma cell viability; series mostly up to 45.9 µM;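 note: cells exposed to compound for 48 h before viability readout; nearly all actives have a fitted effect of over 65% in size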; note: potency is the fitted concentration of half-maximal effect; for activity change, negative = cytotoxic: % is set by controls: 0 for no effect and ±100 for the full control effect
# In short: as §1
# [10] = qHTS of pediatric cancer cell lines to identify multiple opportunities for drug repurposing: Confirmatory screen for A673 cells (AID 1347110); details: A673 Ewing sarcoma cell viability; series mostly up to 45.9 µM;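 note: cells exposed to compound for 48 h before the viability read; plate controls were DMSO neutral control for no effect and bortezomib positive control for full effect; nearly all actives have a fitted effect of over 65% in size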
# In short: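 Cells plated at 500-1,000/well were treated five hours later with multi-point dilutions up to 46 µM final. After two days, CellTiter-Glo was added and luminescence read.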
# [11] = qHTS of pediatric cancer cell lines to identify multiple opportunities for drug repurposing: Confirmatory screen for SK-N-MC cells (AID 1347111); details: SK-N-MC cell viability; series mostly up to 45.9 µM;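 note: potency is the fitted concentration of half-maximal effect; cells exposed to compound for 48 h before the readout; nearly all actives have a fitted effect of over 70% in size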
# In short: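 Metabolically active cells were quantified by ATP-dependent luminescence (CellTiter-Glo, 15 min at room temperature) following 48 h treatment. Cells had been plated at 500-1,000 per well and settled for 5 h beforehand.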
# [12] = qHTS of pediatric cancer cell lines to identify multiple opportunities for drug repurposing: Confirmatory screen for SJ-GBM2 cells (AID 1347116); details: SJ-GBM2 glioblastoma cells, viability; series mostly up to 45.9 µM;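 note: plate controls were DMSO for no effect and bortezomib for full effect; nearly all actives have a fitted effect of over 60% in size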
# In short: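 Viability measured as metabolically active cells via CellTiter-Glo luminescence following 48 hours of compound exposure, 11-point dilutions in confirmatory testing. 500-1,000 cells/well plated 5 hours before dosing; controls were DMSO and 2.3 µM bortezomib.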
# [13] = qHTS of pediatric cancer cell lines to identify multiple opportunities for drug repurposing: Confirmatory screen for TC32 cells (AID 1347118); details: TC32 Ewing sarcoma cells viability qHTS; activity change, negative = cytotoxicity: at 45.9 µM (top of the series);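 note: cells exposed to compound for 48 h before the read; % is set by controls: 0 for no effect and ±100 for the full control effect; nearly all actives have a fitted effect of over 65% in size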
# In short: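 Measured quantity: luminescence from CellTiter-Glo, reflecting metabolically active TC32 cells following 48 h of compound. Curves came straight from multi-point titrations, with 8 or 11 points in primary and 11 in confirmatory screening.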
# [14] = qHTS of pediatric cancer cell lines to identify multiple opportunities for drug repurposing: Confirmatory screen for Rh41 cells (AID 1347123); details: Rh41 rhabdomyosarcoma cells, viability/cytotoxicity qHTS; series mostly up to 45.9 µM;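 note: potency is the fitted concentration of half-maximal effect; 48 h compound exposure; nearly all actives have a fitted effect of over 60% in size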
# In short: as §1
# [15] = qHTS of pediatric cancer cell lines to identify multiple opportunities for drug repurposing: Confirmatory screen for Rh18 cells (AID 1347125); details: Rh18 rhabdomyosarcoma cells, viability; activity change, negative = cytotoxic: at 45.9 µM (top of the series); note: % is set by controls: 0 for no effect and ±100 for the full control effect; nearly all actives have a fitted effect of over 55% in size
# In short: as §1
# Tags give direction and shape of the fitted curve.
smiles,measurement,setting,value
C[C@]12CC[C@@H]3c4ccc(O)cc4C[C@@H](CCCCCCCCCS(=O)CCCC(F)(F)C(F)(F)F)[C@H]3[C@H]1CC[C@H]2O (some centres undefined),Potency,[1],"inconclusive: 14.8 µM [cytotoxic, partial curve, poor fit]"
same,Potency,[2],"inconclusive: 16.6 µM [cytotoxic, partial curve]"
C[C@@H]1CCO[C@H]2Cn3cc(C(=O)NCc4ccc(F)cc4F)c(=O)c(O)c3C(=O)N12,Potency,[1],"inconclusive: 37.2 µM [cytotoxic, partial curve, poor fit]"
same,Potency,[2],"inconclusive: 20.9 µM [cytotoxic, partial curve, poor fit]"
COC(=O)C[C@](O)(CCCC(C)(C)O)C(=O)O[C@@H]1C(OC)=C[C@]23CCCN2CCc2cc4c(cc2[C@H]13)OCO4,Potency,[1],"inconclusive: 16.6 µM [cytotoxic, partial curve, poor fit]"
same,Potency,[2],"inconclusive: 16.6 µM [cytotoxic, partial curve, poor fit]"
O=C1c2ccccc2-c2n[nH]c3cccc1c23,Potency,[1],"inconclusive: 13.2 µM [cytotoxic, partial curve, poor fit]"
same,Potency,[2],"inconclusive: 16.6 µM [cytotoxic, partial curve]"
N#CNC(=NCCCCCCOc1ccc(Cl)cc1)Nc1ccncc1,Potency,[1],active: 0.0059 µM
same,Potency,[2],active: 0.0059 µM
same,Potency,[3],active: 0.0147 µM
same,Potency,[4],"inconclusive: 7.37 µM [cytotoxic, partial curve]"
same,Potency,[5],active: 0.0414 µM
same,Potency,[6],"inconclusive: 2.93 µM [cytotoxic, full curve, poor fit]"
same,Potency,[7],"inconclusive: 26.1 µM [cytotoxic, single point]"
same,Potency,[8],active: 0.293 µM
same,Potency,[9],active: 0.0369 µM
Nc1ncnc2nc(-c3ccc(N4CCOCC4)nc3)cc(-c3cccc(Br)c3)c12,Potency,[1],"inconclusive: 16.6 µM [cytotoxic, partial curve, poor fit]"
same,Potency,[2],"inconclusive: 20.9 µM [cytotoxic, single point]"
OCCN(CCO)c1nc(N2CCCCC2)c2nc(N(CCO)CCO)nc(N3CCCCC3)c2n1,Potency,[1],"inconclusive: 14.8 µM [cytotoxic, partial curve, poor fit]"
same,Potency,[2],"inconclusive: 20.9 µM [cytotoxic, partial curve]"
CC1CCC(C(=O)N(c2cc(C#CC(C)(C)C)sc2C(=O)O)C2CCC(O)CC2)CC1 (centres undefined),Potency,[1],"inconclusive: 23.5 µM [cytotoxic, single point]"
same,Potency,[2],"inconclusive: 10.5 µM [cytotoxic, partial curve]"
Cc1ccc([C@@H]2O[C@H](CO)[C@@H](O)[C@H](O)[C@@H]2O)cc1Cc1ccc(-c2ccc(F)cc2)s1,Potency,[1],"inconclusive: 2.09 µM [cytotoxic, partial curve, poor fit]"
same,Potency,[2],"inconclusive: 9.35 µM [cytotoxic, partial curve]"
S=c1nc[nH]c2nc[nH]c12,Potency,[1],"inconclusive: 2.99 µM [cytotoxic, full curve] and inconclusive: 5.9 µM [cytotoxic, full curve]"
same,Potency,[2],"inconclusive: 9.44 µM [cytotoxic, partial curve]"
CC#CCn1c(N2CCC[C@@H](N)C2)nc2c1c(=O)n(Cc1nc(C)c3ccccc3n1)c(=O)n2C,Potency,[1],"inconclusive: 14.8 µM [cytotoxic, partial curve, poor fit]"
same,Potency,[2],"inconclusive: 7.43 µM [cytotoxic, partial curve]"
CC(C)OC(=O)C(C(=O)OC(C)C)=C1SC=CS1,Potency,[1],"inconclusive: 18.7 µM [cytotoxic, partial curve]"
same,Potency,[2],"inconclusive: 18.7 µM [cytotoxic, partial curve]"
CC1(C)[C@H](O[C@H]2O[C@H](C(=O)O)[C@@H](O)[C@H](O)[C@H]2O[C@@H]2O[C@H](C(=O)O)[C@@H](O)[C@H](O)[C@H]2O)CC[C@@]2(C)[C@H]1CC[C@]1(C)[C@H]2C(=O)C=C2[C@H]3C[C@@](C)(C(=O)O)CC[C@]3(C)CC[C@]21C,Potency,[2],inactive
Cn1c2cc(S(C)=O)sc2c2cnn(Cc3cccc(N)c3)c(=O)c21 (centres undefined),Potency,[2],"inconclusive: 16.6 µM [cytotoxic, partial curve, poor fit]"
CO[C@H]1/C=C\O[C@@]2(C)Oc3c(C)c(O)c4c(O)c(c5c(nc6cc(C)ccn65)c4c3C2=O)NC(=O)C(C)=CC=C[C@H](C)[C@H](O)[C@@H](C)[C@@H](O)[C@@H](C)[C@H](OC(C)=O)[C@H]1C,Potency,[1],"inconclusive: 3.32 µM [cytotoxic, partial curve]"
same,Potency,[2],inactive
same,Potency,[10],inactive
same,Potency,[11],"inconclusive: 20.8 µM [cytotoxic, partial curve, poor fit]"
same,Potency,[5],inactive
same,Potency,[12],inactive
same,"activity change, negative = cytotoxicity",[13],inconclusive: -48.6% [cytotoxic]
same,Potency,[6],inactive
same,Potency,[8],inactive
same,Potency,[14],"inconclusive: 26.1 µM [cytotoxic, single point]"
same,Potency,[9],inactive
same,Potency,[15],inactive
C=C[C@@H]1CN2CCC1C[C@@H]2C(O)c1ccnc2ccc(OC)cc12 (some centres undefined),Potency,[2],"inconclusive: 7.43 µM [cytotoxic, partial curve]"
O=C(O)C1=NC(C(=O)O)CC(C=CN2c3cc(O)c(OC4OC(CO)C(O)C(O)C4O)cc3CC2C(=O)O)=C1 (centres undefined),Potency,[2],"inconclusive: 41.8 µM [cytotoxic, partial curve, poor fit]"
N=C1SC(=Cc2ccc(-c3ccc4c(c3)C(=O)NC4=O)o2)C(=O)N1c1ccc(Br)cc1,Potency,[2],"inconclusive: 4.69 µM [cytotoxic, partial curve]"
CCC=CC[C@H]1C(=O)CC[C@@H]1CC(=O)OC,Potency,[2],inactive
